In patent US20100169988A1 (published 2010):

Molecular target: APP-TAP-AICD (human, UniProt P05067)
Experiment: streptavidin purification of APP-TAP-AICD from brain homogenate; iTRAQ 116/114, transgenic mouse 75 vs control mouse 72; MALDI-TOF/TOF;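 further: relative protein abundance in the transgenic versus control pull-down, limited to proteins with high quality scores and above-average enrichment, without full normalization across the whole measurement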

iTRAQ ratio: 5.02
B1: ATP synthase beta chain; mitochondrial precursor (enzyme)
chain: not shown
